In all, about 310,000 compounds went through this assay and about 2,200 (0.71%) showed an effect of 50% or more. Effects have a minus sign here. Some of the results follow.
molecular target: human ether-à-go-go-related gene (hERG) potassium channel (human, UniProt Q12809); test: primary screen, population patch clamp on CHO cells stably expressing hERG
Sequence (Q12809 whole entry, looked up): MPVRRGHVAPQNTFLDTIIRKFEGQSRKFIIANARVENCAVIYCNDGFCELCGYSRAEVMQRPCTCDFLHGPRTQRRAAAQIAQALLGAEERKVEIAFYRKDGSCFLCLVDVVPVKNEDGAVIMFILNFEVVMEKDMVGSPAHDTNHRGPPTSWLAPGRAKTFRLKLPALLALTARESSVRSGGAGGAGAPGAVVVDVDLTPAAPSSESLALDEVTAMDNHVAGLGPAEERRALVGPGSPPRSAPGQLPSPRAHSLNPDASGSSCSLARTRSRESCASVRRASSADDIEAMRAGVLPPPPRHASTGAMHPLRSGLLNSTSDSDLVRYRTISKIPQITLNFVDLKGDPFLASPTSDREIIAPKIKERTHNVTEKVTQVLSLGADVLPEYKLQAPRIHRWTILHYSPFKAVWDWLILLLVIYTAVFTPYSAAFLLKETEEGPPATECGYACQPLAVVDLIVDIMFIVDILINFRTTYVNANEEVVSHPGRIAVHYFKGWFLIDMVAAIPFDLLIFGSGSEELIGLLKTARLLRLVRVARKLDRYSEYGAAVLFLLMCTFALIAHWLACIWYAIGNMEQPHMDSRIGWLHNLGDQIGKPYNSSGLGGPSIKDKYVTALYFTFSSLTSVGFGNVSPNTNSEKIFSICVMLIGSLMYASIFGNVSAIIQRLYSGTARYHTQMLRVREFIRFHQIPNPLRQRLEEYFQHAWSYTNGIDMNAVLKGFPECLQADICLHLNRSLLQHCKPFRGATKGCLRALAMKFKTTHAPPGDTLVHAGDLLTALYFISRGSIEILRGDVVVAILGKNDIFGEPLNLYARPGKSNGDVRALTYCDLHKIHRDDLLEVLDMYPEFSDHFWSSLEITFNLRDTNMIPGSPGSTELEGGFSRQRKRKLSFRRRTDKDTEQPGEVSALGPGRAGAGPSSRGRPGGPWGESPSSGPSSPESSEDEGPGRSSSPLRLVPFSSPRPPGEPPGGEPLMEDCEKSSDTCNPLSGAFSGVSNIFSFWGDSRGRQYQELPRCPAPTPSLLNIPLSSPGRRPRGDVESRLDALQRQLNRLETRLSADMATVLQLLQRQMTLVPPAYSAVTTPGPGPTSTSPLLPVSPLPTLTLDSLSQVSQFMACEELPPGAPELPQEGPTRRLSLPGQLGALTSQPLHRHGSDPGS

SMILES | hERG current change (%, negative = inhibition) at 1uM [%]
CCN(CC)CCOCCOC(=O)C1(c2ccccc2)CCCC1.O=C(O)CC(O)(CC(=O)O)C(=O)O | -0.103
COC(=O)C1=C(C)NC(C)=C(C(=O)OCCN(C)Cc2ccccc2)C1c1cccc([N+](=O)[O-])c1.Cl (stereo not shown) | 13.8
C#CCN(C)C(C)Cc1ccccc1.Cl (stereo not shown) | 11
Cc1ccc2c(N)c(C#N)sc2n1 | 14
COc1ccc(OC)c(CNc2c(C=O)c(=O)[nH]c3ccccc23)c1 | 21.2
Cc1nn(C)c(C)c1/C=N/NC(=O)CCn1cc([N+](=O)[O-])cn1 | -1.06
NC(=O)c1cn(C2CCCCC2)c2ccccc2c1=O | -10.9
CC(C)NC(=S)N1CCN(Cc2ccc3c(c2)OCO3)CC1 | 9.9
CC(C)CC1NC(=O)N(CC(=O)Nc2cccc(Br)c2)C1=O (stereo not shown) | 3.12
CN(Cc1ccccc1)C(=O)c1ccc(NC(=O)Cc2cccc(NC(=O)C3CCCN(C(=O)CCc4ccccc4)C3)c2)cc1 (stereo not shown) | 11.5
CCCCNc1ncnc2c1cnn2Cc1ccc(Cl)cc1 | 5.02
CN(C)/C=C(\C#N)C(=O)c1cccnc1Oc1ccc(F)cc1F | -1.06
COc1ccc(OCc2csc(N)n2)cc1 | 29.9
Cc1ccc(-c2csc3ncn(CC(=O)NCC(c4ccco4)N4CCCC4)c(=O)c23)cc1 (stereo not shown) | -5.43
CC(Oc1ccc(F)cc1F)C(=O)/C=C/N(C)C (stereo not shown) | 2.17
COc1ccc(-c2nnn(CC(=O)N3CCN(c4ccc(F)cc4)CC3)n2)cc1 | 10.6
CC(=O)N(C1=C(Cl)C(=O)c2ccccc2C1=O)C1CCCCC1 | 10.2
CCSc1nnc(-c2cccc(S(=O)(=O)N(CC)CC)c2)n1Cc1ccccc1 | -19.5
CCCCN(C(=O)CSCc1c(C)noc1C)c1c(N)n(CCC)c(=O)[nH]c1=O | 12.9
COC(=O)C1=C(C)NC(C)=C(C(=O)OC)C1c1ccc(-c2cc(Cl)ccc2Cl)o1 | 7.44
COc1ccc(NC(=O)Cn2nnc(C(=O)NCc3ccc4c(c3)OCO4)c2N)cc1 | 13.8
CC(C)C(=O)N1CCC2(CC1)Oc1ccc(Cl)cc1C(=O)C21CC(c2ccccc2)=NO1 (stereo not shown) | 2.32

SMILES | hERG current change (%, negative = inhibition) at 1uM [%]
S=C(NNC(=S)NC1CC2CCC1C2)NC1CC2C=CC1C2 (stereo not shown) | 13.2
O=C(Nc1cccc(F)c1)N(Cc1ccc(Cl)cc1)CC(O)C(F)(F)F (stereo not shown) | 1.71
CN(C)c1ccc(P(=O)(Nc2cccc(C(F)(F)F)c2)N2CCOCC2)c(NC(=O)c2cccs2)c1 (stereo not shown) | 15
c1ccc(-c2ccccc2-n2cnnn2)cc1 | 4.4
O=C(COc1cc(Cl)ccc1Cl)Nc1ccc2[nH]c(=O)[nH]c2c1 | 20.6
O=[N+]([O-])c1ccc(S(=O)(=O)N/N=C/c2ccco2)cc1 | 7.67
Cc1cc(S(=O)(=O)NCCc2ccccc2)ccc1-n1cnnn1 | 5.32
Fc1ccc(Sc2nc(-c3ccccc3)nnc2C(F)(F)F)cc1 | 15.5
COc1ccccc1COCC(O)CN1CCCCC1CO.O=C(O)C(=O)O (stereo not shown) | 14.9
CC(C)Oc1cccc(C(=O)NC(=S)Nc2ccccc2N2CCOCC2)c1 | 0.628
COc1ccc(C2c3ccc(O)cc3Oc3ncn4nc(-c5ccncc5)nc4c32)cc1OC (stereo not shown) | -0.788
CCCN1Cc2cccc(C(=O)NCc3ccc(C)cc3)c2C1=O | -4.32
COc1cc(CNCc2ccccn2)ccc1OCc1c(Cl)cccc1Cl.Cl | -4
Cc1ccc(C)c(NC(=O)CCC(=O)NNC(=O)c2cccs2)c1 | 14.4
O=C(Nc1cc(S(=O)(=O)Nc2ccccc2Cl)ccc1O)c1cc2c(s1)CCCC2 | -0.558
Cn1c(/C=C/N2CCOCC2)c(C(=O)c2ccc(Br)cc2)c(=O)n(C)c1=O | 5.89
Nc1nc(N)nc(-c2cc(O)ccc2O)n1 | 5.4
Cc1c(/C=C/C(=O)c2ccccc2)cnn1C | 8.63
O=C(Nc1cccc(Cl)c1)OC1CN2CCC1CC2 (stereo not shown) | 12.8
COC(=O)C1=C(C)N(Cc2ccccc2)C(=NCc2ccc(OC)cc2)N[C@H]1c1cccc(F)c1 | 11.4
CC(C)c1ccc2[nH]c3nc(SCC(=O)N4CCOCC4)nnc3c2c1 | 10.2
Cc1cc(C)c(C#N)c(Oc2ccccc2)n1 | 6.47

SMILES | hERG current change (%, negative = inhibition) at 1uM [%]
Cc1ccc(NC(=O)c2ccc(OCc3c(C)noc3C)cc2)c(C)c1 | 11.2
Cc1nc(C(=O)N2CCCC(Nc3ccc(C)c(C)c3)C2)cs1 (stereo not shown) | 0.558
CCN(CC)CCOC(=O)/C=C/c1ccccc1.Cl | 4.06
O=C(COc1ccccc1)Nc1cc(C(F)(F)F)ccc1N1CCCC1 | 16.1
Cc1ccc(C(=O)N2CCN(c3ncnc4c3cnn4-c3ccccc3)CC2)cc1 | 14.9
CCC1(c2ccc(F)cc2)NC(=O)N(CC(=O)N2c3ccccc3NC(=O)CC2C)C1=O (stereo not shown) | -33.2
Cc1ccc(S(=O)(=O)N2CCC(C(=O)OCC(=O)N3CCCC3=O)CC2)cc1C | 14
CCCOc1ccc(N2C(=O)CC(SCCc3nc4ccccc4[nH]3)C2=O)cc1 (stereo not shown) | 4.82
COc1ccc(OC)c(/C=C/C(=O)c2ccc(Cl)cc2)c1 | 3.58
Cc1c(/C=N/NC(=O)C(C)(C)Oc2ccc(Cl)cc2)cnn1C | -4.73
Cc1ccc(OCC(=O)N2CCC(N3CC(C)CC(C)C3)CC2)cc1 (stereo not shown) | -6.48
O=C(O)C(c1ccccc1)C1(O)CCCC1 (stereo not shown) | 9.08
CC1=C(C(=O)Nc2ccccc2C)C(c2ccc(C)o2)n2c(s/c(=C/c3ccccc3)c2=O)=N1 (stereo not shown) | 10.9
Cc1[nH]nc2c1C1(CCN(C(=O)c3ccccc3)CC1)C(C#N)=C(N)O2 | 6.34
O=C(Nc1ccccc1)Nc1cccc2nsnc12 | 6.8
COc1ccc(OC)c(-c2nn(-c3ccccc3)cc2C(=O)NCC(c2cccs2)N2CCOCC2)c1 (stereo not shown) | 5.12
Cc1ccsc1CNCCc1ccccc1F | 13.5
CCCNC(=O)c1cc(S(=O)(=O)N2CCCCC2)c[nH]1 | 1.32
Cc1c(NC(=S)NC(=O)COc2ccccc2)c(=O)n(-c2ccccc2)n1C | 6.11
CCOC(=O)N1CCN(C(=O)C2CCC(=O)N2C(C)C)CC1 (stereo not shown) | 1.28
CCn1c(SCC(=O)c2ccc3c(c2)Cc2ccccc2-3)nnc1-c1ccc(N)cc1 | 1.74
Cc1ccc(S(=O)(=O)N2CCC(C(=O)N[C@@H](C)C(=O)Nc3ccc(F)cc3)CC2)cc1 | 5.35

SMILES | hERG current change (%, negative = inhibition) at 1uM [%]
Cc1cccc(N2C(=O)NC(=O)/C(=C\c3ccc(N4CCOCC4)cc3)C2=O)c1 | 17.2
Cc1cc(/C=C(/C#N)C(=O)Nc2ccc(Cl)cc2)c(C)n1-c1cccnc1 | 0.418
CCOC(=O)C1CCN(CC(C)(C)NS(=O)(=O)c2ccccc2)CC1 | 11.5
COc1ccc(C2C(C#N)=C(N)Oc3c2c(-c2ccccc2)nn3-c2ccccc2)c(OC)c1OC (stereo not shown) | 6.17
COCCNC(=O)NC(=O)CN1C(=O)NC(Cc2c[nH]c3ccccc23)C1=O (stereo not shown) | 14.6
COc1ccc(N2CCN(/C(=N\S(=O)(=O)c3ccccc3)Nc3nc(C)cc(C)n3)CC2)cc1 | 10.5
Cc1c(C)n2c(SCC(=O)Nc3ccc4c(c3)OCCO4)nnc2[nH]c1=O | 11.6
CCOC(=O)/C(C(N)=NC)=C(\O)c1ccccc1 | 5.36
CC1CN(C(=O)CCC(=O)N2CCOCC2)c2ccccc2O1 (stereo not shown) | -3.09
O=C(CCn1ccc([N+](=O)[O-])n1)NC1CCCCCC1 | 3.22
CCCN1CCN(CCCNC(=O)c2cc3c(=O)[nH]c4ccccc4c3s2)CC1 | 1.68
Cc1[nH]c2ccccc2c1/C=C/C(=O)c1ccccc1 | 10.4
COc1ccccc1Nc1nc(N)nc(CN2CCN(Cc3ccccc3)CC2)n1 | -76.6
Cc1cc(C)c2c(c1)-c1c(ssc1=S)C(C)(C)N2C(=O)CSc1nncn1C | -0.0873
CCOc1cc(CNCCO)cc(Br)c1OCc1ccccc1Cl.Cl | 12.4
O=C(O)/C=C/C(=O)Nc1ccc(OC(F)(F)F)cc1 | 18.7
O=C1[C@@H]2CSCN2C(=O)CN1Cc1c(F)cccc1Cl | 10.7
N#Cc1c2c(c(NCCOCCO)n3c1nc1ccccc13)CCCC2 | 8.37
CCC1SC2=NCN(c3ccccc3)CN2C1=O (stereo not shown) | 16.9
CCOC(=O)C1CCCN(C(=O)C(C)Oc2ccc(Cl)cc2Cl)C1 (stereo not shown) | 4.21
O=C(O)CCCC(=O)Nc1cccc([N+](=O)[O-])c1 | 12.2
CCOCCCNCC(=O)Nc1ccc(S(=O)(=O)NC(C)CC)cc1.O=CO (stereo not shown) | 10.9

Source: PMC4336329 (PLoS ONE, 2015)
